# In publication PMC12040169 (PLOS Biology, 2025):
# This is one part of the list.
# Tested on: T1, C. trachomatis L2/434/Bu expressing GFP (CTL2-GFP)
# T1 construct: L2/434/Bu GFP intracellular growth in HeLa cells
# Set-up: species or system HeLa; C. trachomatis total inclusion area by high-content imaging, normalised to DMSO
# Settings: total inclusion area; 28.5 h, 10 µM; inhibitor
# How it was run: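 Following bulk GFP and resorufin fluorescence reads, infected cells were fixed, Hoechst-stained and imaged on a high-content platform. Inclusion total area and number per well served as growth proxies; nuclei counts indicated host viability. MICs were derived as for the fluorescence assay.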
row,SMILES,% of control remaining
1,COc1ccc(N(CC(=O)Nc2c(F)cccc2F)S(=O)(=O)c2ccccc2)cc1 [CBK266883],113.649
2,Nc1nc2ccc(-c3nc4ccccc4o3)cc2s1 [CBK287846],33.2919
3,O=C(CSc1nc2ccccc2n1Cc1ccccc1)N/N=C/c1ccco1 [CBK263174],101.04
4,CS(=O)(=O)Nc1ccc2c(O)c(C(=O)NCc3ccc(Cl)cc3)c(=O)[nH]c2c1 [CBK017559],77.2534
5,CC1(CNC(=O)c2cc(-c3cccc(F)c3)no2)COC1 [CBK281751],114.11
6,O=C(N/N=C/c1cccc(Oc2ccccc2)c1)c1ccncc1 [CBK261955],137.183
7,O=C(Nc1ncccc1Cl)c1ccc(F)cc1 [CBK288215],95.6341
8,N#CCCN(C(=O)NCCN1CCOCC1)C1CCCCC1 [CBK156357],104.448
9,CC(C)(C)OC(=O)N1CCCC1C1COc2ccccc2C1=O (stereo not shown) [CBK281579],97.2093
10,O=C(Cn1nc(-c2cc3c(s2)CCC3)oc1=O)NC1CC1 [CBK283800],70.1156
11,CNS(=O)(=O)c1ccc(NC(=O)c2cc(-c3ccc4c(c3)OCO4)nc3ccccc23)cc1 [CBK267735],110.918
12,COCCOCCCC(=O)OCC1Cc2cc(F)ccc2O1 (stereo not shown) [CBK304886],104.038
13,N#Cc1[nH]nnc1-c1ccc(OC(F)(F)F)cc1 [CBK017386],99.4297
14,Oc1cccc(Sc2cc(C(F)(F)F)ccn2)c1 [CBK115273],92.5173
15,Cc1ccc2c(c1)CN(C(=O)C1CC1C)CC1(CCN(C)CC1)O2 (stereo not shown) [CBK284833],116.191
16,O=C(/C=C/c1ccccc1[N+](=O)[O-])NCCN1CCOCC1 [CBK265596],122.166
17,COc1ccc(CCNc2ncnc3sc4c(c23)CCCCC4)cc1OC [CBK074384],87.5902
18,CCn1nc(C)c(C2NC(=O)c3ccccc3N2)c1C (stereo not shown) [CBK288214],62.1681
19,COc1ccc(C(NC(=O)COc2c(Cl)cc(C(=O)O)cc2Cl)C(C)C)cc1 (stereo not shown) [CBK295344],86.1372
20,Cn1nc(C(C)(C)C)c2cc(C(=O)N3CCCc4occc4C3)cnc21 [CBK304713],58.7566

row,SMILES,% of control remaining
1,CN1C(=O)c2ccccc2OCCCCC[C@H]2NCCC[C@H]21 [CBK292075],100.685
2,Cc1ccc(NS(=O)(=O)c2cccc(C(=O)NS(=O)(=O)c3ccc(F)cc3F)c2)cc1 [CBK297776],97.7715
3,O=C(C1CCCC1)N1CCc2nc(-c3ccccc3)[nH]c(=O)c2C1 [CBK282331],102.261
4,O=C(CCN1CCOCC1)NNC(=O)Nc1cccc(C(F)(F)F)c1 [CBK269017],73.1267
5,Cc1cc(-c2nccnc2NCc2cccc(Cl)c2)cc(C)c1O [CBK036646],126.043
6,CC(C)Oc1ccccc1-c1nnc(SCC(=O)O)[nH]1 [CBK262702],92.7204
7,Cc1cc(N2CCCC(C(=O)N3CCOCC3)C2)nc(N)n1 (stereo not shown) [CBK305985],61.0625
8,O=C(CN1C(=O)c2ccccc2C1=O)N1CCN(Cc2ccc3c(c2)OCO3)CC1 [CBK074846],79.553
9,Cc1ccn(CCNC(=O)C2CCC(=O)N(CCc3ccccn3)C2)n1 (stereo not shown) [CBK306998],54.64
10,CN(CCN1CCCC1)c1nccc(N2CCN[C@H]3CS(=O)(=O)C[C@H]32)n1 [CBK306692],104.498
11,COc1cccc(CCC(=O)n2ccn(-c3ccc(N(C)C)cc3)c2=O)c1 [CBK106609],105.661
12,Cc1ccc(S(=O)(=O)N(CC(=O)O)c2ccc(C(C)C)cc2)cc1 [CBK287116],99.2241
13,CC1(C#N)CCCN(C(=O)NC2CCN(Cc3cccc(O)c3)CC2)C1 (stereo not shown) [CBK306787],106.377
14,COc1ccc(CNC(=O)c2cc(O)nc3ccccc23)cc1OC [CBK296763],128.287
15,CCOC(=O)C1(C2CCCCC2)CCN(C(=O)C2CCN(C)CC2)CC1 [CBK136948],84.6297
16,Cc1cc(C)c2c(n1)OC(N1CCOCC1)(C(F)(F)F)CC2=O (stereo not shown) [CBK267301],99.951
17,Cc1nc2nc(N)nn2c(C)c1CCC(=O)NCc1ccccc1 [CBK304986],73.9041
18,COc1cc(C(=O)N2CCN(C(=O)c3ccco3)CC2)cc(OC)c1OC [CBK144476],99.5718
19,CC(=O)NS(=O)(=O)c1ccc(NC(=N)Nc2nc(C)cc(C)n2)cc1 [CBK263117C],91.4357
20,CCOC(=O)C1(C2CCCCC2)CCN(C(=O)/C=C/c2ccc3c(c2)OCO3)CC1 [CBK136924],72.497
